Experimental data published in PubChem BioAssay AID588342 (National Center for Advancing Translational Sciences (NCATS), 2011).
The campaign covered roughly 360,000 compounds. About 25,000 (6.9%) were called active. The inconclusive results got no clear call from the source; some entries with a clear call stand among them for comparison. Calls follow the shape of the dose curve; as a rule, active = well fitted inhibition curve with a large enough effect; inconclusive = small, poorly fitted or top-dose-only effect; inactive = flat fitted curve, though single readings scatter. Potencies beside an inconclusive call are fits to weak or partial responses and may not hold up.

What follows are compounds tested against Luciferin 4-monooxygenase (Photinus pyralis) (UniProt P08659) (assay: qHTS profiling assay for firefly luciferase inhibitor/activator using purifed enzyme and Km concentrations of substrates (counterscreen for miR-21 project)). Details: purified FLuc, luminescence inhibition; series mostly up to 57.5 µM.
Sequence of UniProt P08659 (P08659 whole entry, looked up): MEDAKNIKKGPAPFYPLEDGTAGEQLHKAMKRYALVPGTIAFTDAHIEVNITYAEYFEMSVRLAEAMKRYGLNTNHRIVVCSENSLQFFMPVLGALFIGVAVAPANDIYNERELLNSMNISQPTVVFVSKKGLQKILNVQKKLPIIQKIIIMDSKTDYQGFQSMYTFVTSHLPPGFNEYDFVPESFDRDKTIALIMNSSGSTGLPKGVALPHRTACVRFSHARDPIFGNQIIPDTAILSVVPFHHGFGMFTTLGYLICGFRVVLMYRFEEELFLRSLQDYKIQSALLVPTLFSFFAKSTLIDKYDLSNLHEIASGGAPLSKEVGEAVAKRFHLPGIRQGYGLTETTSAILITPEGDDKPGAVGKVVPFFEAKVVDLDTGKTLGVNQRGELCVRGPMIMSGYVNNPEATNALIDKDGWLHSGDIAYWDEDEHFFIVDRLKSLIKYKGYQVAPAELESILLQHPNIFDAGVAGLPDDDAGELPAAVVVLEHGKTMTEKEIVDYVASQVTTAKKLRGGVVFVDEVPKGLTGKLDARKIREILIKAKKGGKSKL
Outline: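 Purified P. pyralis luciferase, 10 nM final, with Km-level 10 uM D-luciferin and 10 uM ATP in 50 mM Tris acetate pH 7.5, 10 mM Mg acetate, 0.01% Tween-20, 0.05% BSA; 6-point qHTS titration about 60 µM downward; luminescence read.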
Also: nearly all actives have a fitted effect of over 55% in size.
Potency is read from the fitted curve at half-maximal effect; tags tell the direction and shape of the fitted curve.

Compound | Potency
CCN(Cc1ccccc1)S(=O)(=O)c1ccc(C(=O)Nc2nnc(C3CC3)o2)cc1 | inactive
CCOc1ccc(/C=N/NC(=O)c2ccccc2NC(=O)c2ccc(OC)cc2)cc1 | active: 0.379 µM
Cc1csc(SCC(=O)Nc2nncs2)n1 | inconclusive: 30.1 µM [inhibitor, partial curve, poor fit]
CN(c1ccccc1)S(=O)(=O)c1nnc(NC(=O)c2cccs2)s1 | active: 1.07 µM
CCOc1ccc(-c2nc(C#N)c(N3CCN(Cc4ccccc4)CC3)o2)cc1 | inconclusive: 8.49 µM [inhibitor, partial curve, poor fit]
CCN(Cc1ccccc1)C(=O)CCS(=O)(=O)c1cc(Br)cc2c1N(C(=O)C1CC1)CC2 | inactive
Cc1cccn2c(=O)c(/C=C3\SC(=S)N(CC(C)C)C3=O)c(NCCCOC(C)C)nc12 | inactive
CC(C)N(C(=O)CSc1ncnc2sc(-c3ccccc3)cc12)C(C)C | inconclusive: 10.7 µM [inhibitor, partial curve]
Cc1nc(NC(=O)C2CC3CCCC(C2)C3=O)sc1C (stereo not given) | inconclusive: 37.9 µM [inhibitor, partial curve, poor fit]
CCOC(=O)Cn1ccc(NC(=O)c2ccc3c(c2)OCO3)n1 | inconclusive: 26.9 µM [inhibitor, single point]
Cc1ccccc1CNC(=O)Cc1csc2ccccc12 | inconclusive: 21.3 µM [inhibitor, single point]
CC(=O)OCC1=C(C(=O)O)N2C(=O)C(NC(=O)CCn3nc(C(F)(F)F)c(Br)c3C3CC3)C2SC1 (stereo not given) | inconclusive: 37.9 µM [inhibitor, partial curve, poor fit]
CCN(CC)C(=O)CC(c1cc(OC)c(OC)c(OC)c1)c1c(OC)cc(OC)c2c(-c3ccccc3)cc(=O)oc12 (stereo not given) | inactive
Cc1sc(NC(=O)Nc2ccccc2)c(C(N)=O)c1C | active: 7.57 µM
COC(=O)c1c(NC(=O)C2CCCCC2C(=O)O)sc2c1CCCCC2 (stereo not given) | inconclusive: 23.9 µM [inhibitor, single point]
CCc1ccn2cc(-c3cc(-c4ccccc4)no3)nc2c1 | active: 0.0675 µM
CCCS(=O)(=O)N1CCC(Cc2ccc(OC)cc2)(C(=O)OCC)CC1 | inconclusive: 37.9 µM [inhibitor, partial curve, poor fit]
CCc1ccc(-c2nc(CS(=O)CC(=O)NC3CCCCCC3)c(C)o2)cc1 (stereo not given) | inconclusive: 30.1 µM [inhibitor, partial curve, poor fit]
CCC(Nc1ccc(OC)cc1)C(=O)N/N=C/c1ccc([N+](=O)[O-])cc1 (stereo not given) | inactive
Cc1ccc(CNC(=O)/C=C/c2cccs2)cc1 | inconclusive: 26.9 µM [inhibitor, single point]
O=C(CCCN1C(=O)/C(=C/c2ccc3c(c2)OCO3)SC1=S)Nc1cccc(C(=O)O)c1 | inconclusive: 23.9 µM [inhibitor, partial curve, poor fit]
Cc1cc(Nc2ccccc2)n2nc(C)c(-c3ccccc3)c2n1 | inconclusive: 16.9 µM [inhibitor, partial curve]
O=C(COC(=O)c1ccccc1[N+](=O)[O-])c1ccc(C2CCCCC2)cc1 | active: 0.135 µM
COc1ccc2c(c1)NC(c1ccc(Cl)cc1)=NC(c1cccs1)=N2 | inconclusive: 13.5 µM [inhibitor, partial curve]

Compound | Potency
Cc1cccc(N2C(=O)CCC2=O)n1 | inactive
CCc1ccc(NC(=O)C(=O)NNC(=O)c2cccc(OC)c2)cc1 | inconclusive: 26.9 µM [inhibitor, single point]
Cc1cc(C)c2nc(N3CCC(C(=O)NCC4CCCO4)CC3)sc2c1 (stereo not given) | inconclusive: 26.9 µM [inhibitor, single point]
CC1(C)Cc2c(sc(NC(=O)C(C)(C)C)c2C#N)C(C)(C)N1 | inactive
CC1=C(C(=O)Nc2ccccc2)C(c2ccc(Cl)cc2)n2c(s/c(=C/c3cccc(OCC(=O)O)c3)c2=O)=N1 (stereo not given) | inconclusive: 37.9 µM [inhibitor, partial curve, poor fit]
Cc1nc2cc(NC(=O)C3COc4ccccc4O3)ccc2s1 (stereo not given) | active: 12 µM
COc1ccc(Br)cc1CNC(=O)CSc1n[nH]c(-c2ccccc2)n1 | inconclusive: 37.9 µM [inhibitor, partial curve, poor fit]
CCCCc1ccc(NS(=O)(=O)c2cccc(C(=O)N3CCNC(=O)C3)c2)cc1 | inactive
O=C(Nc1ccc2ccccc2c1)C(=O)C1C(=O)Nc2ccccc21 (stereo not given) | inconclusive: 7.57 µM [inhibitor, partial curve]
O=C(Nc1cccc(Cl)c1)OCc1ccccn1 | active: 26.9 µM
CCC(C)[C@H](N)c1nnc(SCc2ccc(Cl)c(Cl)c2)o1 (stereo not given in full) | inactive
COc1ccc(/C=N/N2CCN(c3ccccc3OC)CC2)cc1Br | active: 15.1 µM
CCc1nc2ccccc2c(C(=O)Oc2ccc(C(=O)OC)cc2)c1C | inconclusive: 6.75 µM [inhibitor, partial curve, poor fit]
Cc1cc([N+](=O)[O-])ccc1NC(=O)c1cncc(Br)c1 | inactive
Cc1cc(-c2cccs2)nc(-n2cccc2)n1 | inconclusive: 21.3 µM [inhibitor, single point]
CN1C(=O)/C(=C/c2ccc(OCc3ccccc3F)cc2)N(C)C1=S | inconclusive: 12 µM [inhibitor, partial curve, poor fit]
CSc1ccccc1OCc1cc(C(=O)N(C)Cc2cnccn2)no1 | inconclusive: 19 µM [inhibitor, partial curve]
Nc1nonc1C(=O)N/N=C/c1ccc(-c2cccc(C(=O)O)c2)o1 | active: 16.9 µM
Cc1nc(-c2ccc(Br)cc2)ccc1C(=O)O | inactive
CCc1nc2sc3c(N4CCCCC4)ncnc3c2c2c1CCCC2 | inactive
COc1ccc(NC(=O)CSc2cn(CCNC(=O)c3ccc(OC)cc3)c3ccccc23)cc1 | inconclusive: 15.1 µM [inhibitor, partial curve]
CCCCCNC(=O)C1CCC(Cn2c(=O)c3sccc3n(CC)c2=O)CC1 (stereo not given) | inactive
COc1ccc(N2C(=O)CC(Sc3nnnn3-c3ccc(F)cc3)C2=O)cc1 (stereo not given) | inconclusive: 37.9 µM [inhibitor, partial curve, poor fit]
CCOC(=O)N1CCC(NC(=O)c2cc3c(=O)[nH]c4ccccc4c3n2C)CC1 | inactive

Compound | Potency
COc1ccc(CNCc2c(F)cccc2F)cc1OC | inactive
CN(C)S(=O)(=O)c1cccc(NC(=O)CO/N=C(\N)c2ccccc2)c1 | inconclusive: 37.9 µM [inhibitor, partial curve, poor fit]
Cc1ccc(C)n1-c1ccc(-c2ccnc(N)n2)cc1 | inconclusive: 16.9 µM [inhibitor, single point]
COc1ccc(C)cc1NC(=O)CSc1nnc(COc2ccc(C)cc2)n1Cc1ccco1 | inconclusive: 37.9 µM [inhibitor, partial curve, poor fit]
CC(CNC(=O)CCS(=O)(=O)c1ccc2c(c1)NC(=O)CO2)c1ccccc1 (stereo not given) | inactive
CCOc1ccc(C(=O)N(Cc2ccccc2)c2cccc(C)c2)cc1OC | inconclusive: 23.9 µM [inhibitor, single point]
CC(C)(C)C(=O)COC(=O)c1cc(-c2ccncc2)nc2ccccc12 | inconclusive: 37.9 µM [inhibitor, partial curve, poor fit]
CN(C(=O)CSc1ncnc2ccccc12)C1CCCCC1 | active: 15.1 µM
Cc1ccc(C(=O)Oc2cccc(NC(=O)c3ccccc3)c2)cc1C | inconclusive: 37.9 µM [inhibitor, single point]
CCCC(c1nnnn1C(C)(C)CC)N1CCN(C(=O)c2ccco2)CC1 (stereo not given) | inactive
CCc1ccc(NS(=O)(=O)c2ccc3[nH]c4c(c3c2)CCCCCC4)cc1 | inconclusive: 26.9 µM [inhibitor, partial curve, poor fit]
CCOc1ncccc1C(=O)OCC(=O)c1ccc(F)cc1 | inconclusive: 26.9 µM [inhibitor, single point]
CCOc1ccc(NC(=O)CSc2nnc(CCNC(=O)c3ccc(OC)cc3)n2C)cc1 | inconclusive: 21.3 µM [inhibitor, partial curve, poor fit]
O=C(NCc1ccco1)C1CCCN1C(=O)Nc1cccc(Cl)c1 (stereo not given) | inconclusive: 0.0085 µM [inhibitor, partial curve, poor fit]
COc1ccc2oc(C(=O)Nc3nc4ccc(S(C)(=O)=O)cc4s3)c(C)c2c1 | inconclusive: 1.69 µM [inhibitor, partial curve, poor fit]
CCCSc1nnc2n(-c3ccccc3OC)c(=O)c3c4c(sc3n12)CCC4 | inactive
COc1cc([N+](=O)[O-])ccc1NC(=O)NCc1cccnc1 | inconclusive: 33.8 µM [inhibitor, partial curve, poor fit]
CC(=O)N(c1ccccc1)c1nnc(-c2cnc(C)cn2)s1 | inconclusive: 26.9 µM [inhibitor, partial curve, poor fit]
Cc1nc2nc(SCC(=O)O)nn2c(C)c1Cc1ccccc1Cl | inconclusive: 21.3 µM [inhibitor, partial curve, poor fit]
COc1cc(NC(=O)CSc2ncnc3scc(-c4ccccc4)c23)c(C(=O)O)cc1OC | active: 15.1 µM
CCc1ccccc1NC(=O)Nc1ccc2snnc2c1 | inconclusive: 37.9 µM [inhibitor, single point]
CCC(CC)C(=O)N1CCc2cc(OC)c(OC)cc2C1COc1ccc(F)cc1 (stereo not given) | inactive
